Laboratory results as given in PubChem BioAssay AID588453 (National Center for Advancing Translational Sciences (NCATS), 2011).
“And” between values parts separate entries of the source, which are not always exact repeats. Identical values can stand only once. Out of some 390,000 compounds screened, about 4,000 (1%) were called active. The inconclusive results got no clear call from the source; some entries with a clear call stand among them for comparison. The call rests on the fitted dose curve; in most records, active means well fitted inhibition curve with a large enough effect; inconclusive means small, poorly fitted or top-dose-only effect; inactive means no such curve, though single readings can be large or run the other way. A potency beside an inconclusive call is a rough fit, not a confirmed value.

Target: Thioredoxin reductase 1, cytoplasmic (Rattus norvegicus) (UniProt O89049)
Test: qHTS Assay for Inhibitors of Mammalian Selenoprotein Thioredoxin Reductase 1 (TrxR1): qHTS; further: nearly all actives have a fitted effect of over 65% in size
Conditions: recombinant rTrxR1, NADPH fluorescence consumption, selenite substrate; series mostly up to 114 µM
How it was run: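 Rat TrxR1 (90 nM in the dispensed reagent) was pre-reduced with 400 uM NADPH for 5 min at room temperature, then incubated with compound for 15 min. After 400 uM selenite was added, NADPH fluorescence (Ex 340/Em 450 nm) was followed for 8 min.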
Potency means the concentration at half of the fitted maximal effect; tags describe the fitted curve by direction and shape.

Sequence of UniProt O89049 (O89049 whole entry, looked up): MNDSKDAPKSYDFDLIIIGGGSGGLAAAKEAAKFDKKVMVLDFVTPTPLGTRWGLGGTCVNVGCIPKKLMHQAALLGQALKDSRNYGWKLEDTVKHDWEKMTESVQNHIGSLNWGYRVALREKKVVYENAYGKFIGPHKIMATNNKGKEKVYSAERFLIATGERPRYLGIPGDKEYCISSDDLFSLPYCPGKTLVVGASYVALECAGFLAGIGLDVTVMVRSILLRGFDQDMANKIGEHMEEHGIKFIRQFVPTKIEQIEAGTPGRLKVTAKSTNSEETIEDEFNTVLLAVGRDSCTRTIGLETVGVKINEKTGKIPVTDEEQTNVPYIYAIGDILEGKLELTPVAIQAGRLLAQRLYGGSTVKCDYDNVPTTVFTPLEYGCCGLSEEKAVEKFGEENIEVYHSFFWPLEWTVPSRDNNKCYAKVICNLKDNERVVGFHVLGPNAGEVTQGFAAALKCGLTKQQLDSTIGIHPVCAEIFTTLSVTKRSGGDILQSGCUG

| SMILES | Potency |
| --- | --- |
| C[C@H]1C(=O)N(S(=O)(=O)c2ccccc2[N+](=O)[O-])[C@H]1c1ccc(-c2ccccc2)cc1 | inconclusive: 70.8 µM [inhibitor, single point] |
| CCOc1ccc2c(O)csc2c1 | inactive |
| Cc1nnc(SCC2=C(C(=O)O)N3C(=O)C(NC(=O)c4cc(F)c(F)cc4Cl)C3SC2)s1 (stereo unspecified) | inconclusive: 28.2 µM [inhibitor, partial curve, poor fit] |
| CCCc1cc(=O)oc2c(CNc3ccc(OCC)cc3)c(O)ccc12 | inconclusive: 39.8 µM [inhibitor, partial curve] |
| CN(C)/C(CN1CCN(C=O)CC1)=C1\N=C(c2ccccc2)OC1=O | inconclusive: 28.2 µM [inhibitor, single point] |
| COCCN1CCN(C(=O)C2CCC(=O)N(CCc3ccc(Cl)cc3)C2)CC1 (stereo unspecified) | inconclusive: 89.1 µM [inhibitor, single point] |
| Cc1cc(NS(=O)(=O)c2ccc(NC(=S)NC(=O)c3ccccc3)cc2)no1 | active: 44.7 µM |
| CCCNC(=O)c1c(NC(=O)c2ccccc2F)sc2c1CCCCC2 | inactive |
| Cc1ccc(NC(=O)N2CCC(CN3CCCCCC3)CC2)c(Cl)c1 | inconclusive: 79.4 µM [inhibitor, single point] |
| CCCCCCC[n+]1ccc(/C=C/c2c[nH]c3ccccc23)cc1 | inactive |
| O=C(NC(Cc1c[nH]c2ccccc12)C(=O)O)c1ccc(Br)cc1 (stereo unspecified) | inconclusive: 6.31 µM [inhibitor, single point] |
| CC(=O)N1CCN(S(=O)(=O)c2cccc(C(=O)N(C)Cc3ccc(C)o3)c2)CC1 | inconclusive: 89.1 µM [inhibitor, single point] |
| Cc1cccc(Cn2ccc(NC(=O)c3cccnc3)n2)c1 | inconclusive: 31.6 µM [inhibitor, single point] |
| O=C1OC/C(=C(/O)c2ccc(Cl)cc2)C1=O | inconclusive: 56.2 µM [inhibitor, partial curve, poor fit] |
| CCCN(C(=O)COC(=O)c1nc2nccc(C)n2n1)C1CCS(=O)(=O)C1 (stereo unspecified) | inactive |
| Cc1ccc(F)cc1NC(=O)COC(=O)c1ccc(S(C)(=O)=O)c([N+](=O)[O-])c1 | active: 2 µM |
| COc1ccc(C2/C(=C(/O)c3cnn(-c4ccccc4)c3C)C(=O)C(=O)N2CCN(C)C)cc1OC (stereo unspecified) | inconclusive: 70.8 µM [inhibitor, single point] |
| COc1ccc(-c2nc(C)c(CCNC(=O)c3cccs3)s2)cc1 | inactive |
| O=C(Nc1ccc(F)cc1)c1ccc(S(=O)(=O)NCC2CCCO2)cc1 (stereo unspecified) | inactive |
| NS(=O)(=O)c1ccc(Nc2ncccc2[N+](=O)[O-])cc1 | inactive |
| CCOc1ccc(/C=N/Nc2nc(C)cs2)c(O)c1 | inconclusive: 56.2 µM [inhibitor, single point] |
| CCC1=NN2C(=N)/C(=C\c3ccc(SCc4ccco4)o3)C(=O)N=C2S1 | inactive |
| Clc1ccc2nccnc2c1 | inconclusive: 22.4 µM [inhibitor, full curve] |
| COc1ccccc1-c1cc(C(F)(F)F)nc(S(=O)(=O)CCCC(=O)NC(C)C)n1 | active: 17.8 µM |

| SMILES | Potency |
| --- | --- |
| COc1cc(/C=N\NC(=O)CNC(=O)C(c2ccccc2)c2ccccc2)ccc1O | inactive |
| Cc1ccc(/C=C/C(=O)Nc2ccc(N(C)C)cc2)o1 | inactive |
| N=c1c(S(=O)(=O)c2ccc(Cl)cc2)cc2c(=O)n3ccccc3nc2n1Cc1ccco1 | inconclusive: 89.1 µM [inhibitor, single point] |
| COc1ccc(NC(=O)C/C(C)=N/NC(=O)c2cnccn2)cc1 | inconclusive: 50.1 µM [inhibitor, partial curve, poor fit] |
| COc1ccccc1N1CCN(C(=O)C2CCN(C(=O)c3ccccc3C)CC2)CC1 | inconclusive: 89.1 µM [inhibitor, single point] |
| CCN1CCN(C(c2cccnc2)c2cc(Cl)c3cccnc3c2O)CC1 (stereo unspecified) | active: 4.47 µM |
| Cc1cccc(-c2nc(CS(=O)CC(=O)NCCc3ccc(Cl)cc3)c(C)o2)c1 (stereo unspecified) | inconclusive: 56.2 µM [inhibitor, partial curve] |
| Cc1cc(C)cc(N(C)S(=O)(=O)c2nnc(NC(=O)COc3ccc(Cl)cc3)s2)c1 | inactive |
| CCOc1cc(CNC2CCCC2)ccc1OCc1ccccc1Cl | inactive |
| COC(C/C=C/C(=O)COCc1ccccc1)OC | inconclusive: 56.2 µM [inhibitor, partial curve, poor fit] |
| CCc1ccc(-c2cc(C(=O)N/N=C/c3ccccn3)[nH]n2)cc1 | inactive |
| CN(C(=O)c1cccc(NC(=O)Cc2ccc(NC(=O)C3CCCN(C(=O)CCc4ccccc4)C3)cc2)c1)C1CCCCC1 (stereo unspecified) | inactive |
| CC1CCCCN1S(=O)(=O)c1ccc(C(=O)Nc2nnc(-c3ccco3)o2)cc1 (stereo unspecified) | inconclusive: 89.1 µM [inhibitor, single point] |
| CCN1C(=O)C2(C(C(=O)c3ccc(C)o3)=C(O)C(=O)N2CCCN(C)C)c2ccccc21 (stereo unspecified) | inconclusive: 39.8 µM [inhibitor, partial curve] |
| CC(C)NC(=S)N/N=C/c1cc(Br)ccc1O | inactive |
| O=C(N/N=C/c1cccc(Oc2ccccc2)c1)c1cccc(Br)c1 | inactive |
| O=C(c1cnn2c1NC(=C1CC1)C=C2C(F)F)N1CCc2ccccc21 | inactive |
| COc1ccc2c(c1)C(=C(C#N)C#N)C(=O)N2CCc1ccccc1 | inconclusive: 12.6 µM [inhibitor, single point] |
| COc1ccccc1CN(CC(=O)NCc1ccco1)C(=O)CNS(=O)(=O)c1ccccc1 | inconclusive: 25.1 µM [inhibitor, single point] |
| Cc1ccc(C(=O)COC(=O)CCN2C(=O)C3C4CCC(C4)C3C2=O)cc1[N+](=O)[O-] (stereo unspecified) | inactive |
| O=C(Nc1ccccc1N(C(=O)c1ccco1)S(=O)(=O)c1cccs1)c1ccco1 | inconclusive: 31.6 µM [inhibitor, single point] |
| CCCOC(=O)c1c(NC(=O)C2CCCO2)sc(C(=O)OC)c1C (stereo unspecified) | inactive |
| CC(=O)N1c2ccc(S(=O)(=O)NCC3CCC(C(=O)Nc4cc(C)cc(C)c4)CC3)cc2CC1C (stereo unspecified) | inactive |
| CC1CN(S(=O)(=O)c2ccc(C(=O)Nc3nnc(-c4ccccn4)o3)cc2)CC(C)O1 (stereo unspecified) | inactive |

| SMILES | Potency |
| --- | --- |
| COc1ccc(NS(=O)(=O)c2cccc(C(=O)N/N=C(\C)c3ccncc3)c2)cc1 | inactive |
| COc1cccc(C2=CC(c3ccccc3O)NC(C)(C)N2)c1 (stereo unspecified) | inactive |
| Cc1cc(C)c(S(=O)(=O)c2ccccc2C(=O)O)c(C)c1 | inactive |
| CCCNC(=O)COCc1cc(-c2ccc3c(c2)OCO3)on1 | inconclusive: 25.1 µM [inhibitor, single point] |
| CC(=NNC(=S)Nc1cccc(C)c1)c1ccccn1 | inconclusive: 5.62 µM [inhibitor, full curve] |
| Cc1cc(C(=O)c2ccccc2)c(NC(=O)CCl)s1 | active: 20 µM |
| O=C(NCC1CCCN1S(=O)(=O)c1cccs1)c1ccc(Cl)cc1 (stereo unspecified) | inactive |
| CSc1ccc(/C=C2\C=Cc3cc([N+](=O)[O-])ccc32)cc1 | inconclusive: 63.1 µM [inhibitor, partial curve, poor fit] |
| CN1CCc2c(sc(NC(=O)c3ccco3)c2C(N)=O)C1 | inconclusive: 56.2 µM [inhibitor, partial curve] |
| COc1cc2c(C(=O)N3CCN(C4CCCCC4)CC3)cn(CC(C)C)c(=O)c2cc1OC | inconclusive: 35.5 µM [inhibitor, partial curve] |
| CCCSCCCNC(=O)CN1C(=O)CCn2nc(-c3cn(C)c4ccccc34)cc21 | inconclusive: 39.8 µM [inhibitor, partial curve, poor fit] |
| Cc1ccc(C(=O)/C=C/c2cn(CC(O)CN3CCCCCC3)c3ccccc23)cc1 (stereo unspecified) | inconclusive: 44.7 µM [inhibitor, partial curve, poor fit] |
| COc1cc(/C=C2/C(=O)NN(c3cccc(C)c3)C2=O)cc([N+](=O)[O-])c1O | inconclusive: 35.5 µM [inhibitor, partial curve] |
| CN(CCc1ccccn1)C(=O)c1ccc(OC2CCN(Cc3ccccn3)CC2)cc1 | inconclusive: 89.1 µM [inhibitor, single point] |
| CCCN(Cc1ccccc1)C(=S)Nc1ccc(OC(F)F)cc1 | inactive |
| COc1ccc(S(=O)(=O)NNC(=S)NCCc2ccccc2)c(OC)c1 | inconclusive: 7.94 µM [inhibitor, full curve] |
| C[C@](N)(Cc1ccc(O)c(O)c1)C(=O)O | inconclusive: 23.8 µM [inhibitor, partial curve, poor fit] and inconclusive: 3.77 µM [inhibitor, full curve] |
| N#Cc1ccc(-c2ccccc2)nc1SCC(=O)c1cc2ccccc2oc1=O | inconclusive: 28.2 µM [inhibitor, single point] |
| CC(=O)c1ccc(NC(=O)c2cc(C3CC3)nc3c2c(C)nn3-c2ccc(C)cc2)cc1 | inconclusive: 22.4 µM [inhibitor, single point] |
| CN(CCC#N)C(=O)COC(=O)c1c2c(nc3ccccc13)/C(=C/c1ccco1)CC2 | active: 5.62 µM |
| CC(=O)c1c(N2CCN(c3ccc(F)cc3)CC2)nc(=S)n(-c2ccccc2)c1C | inconclusive: 10 µM [inhibitor, partial curve, poor fit] |
| O=[N+]([O-])c1ccc(/C=N/Nc2ncccc2[N+](=O)[O-])s1 | inactive |
| COC(=O)C1=C(C)N(c2ccc(OC)c(OC)c2)C(=O)/C1=C\c1ccco1 | active: 28.2 µM |
